Measured values as given in the supplement of paper PMC11417369.
± gives the standard deviation of the averaged measurements. This is one part of the list.

The sequences below were run on PfAP2-EXP AP2 domain (GST-tagged) (assay: gcPBM binding intensity (ln(normalized median fluorescence intensity)); higher = stronger DNA binding).
Method in brief: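 An Agilent 4 × 180k array of primer-extended double-stranded 36-bp intergenic genomic probes, with negative controls, was incubated for 1 h with GST-tagged P. falciparum DNA-binding domains expressed in E. coli. Alexa488 anti-GST antibody detected bound protein, scanned at 488 nm. Binding intensity is the highest Masliner-normalised natural-log median intensity across replicate spots of either probe orientation.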
In the case of “TTTTTTTGAACATATACACACTCTAAACTTATACAT [CACACA_site3917]”, the “gcPBM binding intensity (ln)” value is reported as 8.6 ± 0.39. In the case of “TAATTTATGACACGCGCACACATATATATATAGTAA [CACACA_site4249]”, the “gcPBM binding intensity (ln)” value is reported as 8.89 ± 0.49. For “AAAAATTATGGACACACACACATATATATATATATT [CACACA_site4717]”, the “gcPBM binding intensity (ln)” value was 8.53 ± 0.31. In the case of “AATAAAATAAAATACACACATACATACATACAAATG [CACACA_site2438]”, the “gcPBM binding intensity (ln)” value is reported as 8.86 ± 0.32. “GGTATACGCAAGTATACACACATATATATATATATA [CACACA_site3240]” was tested, and the “gcPBM binding intensity (ln)” value was 10.1 ± 0.47. “AAAGTGGCCATATATTTTTTTTTTTTTTTCCTTATT [CACACA_negctrl_site485]” was tested, and the “gcPBM binding intensity (ln)” value was 8.11 ± 0.53. For “AAAAATAAAGGATATACACACTAATTATATATATAT [CACACA_site5550]”, the “gcPBM binding intensity (ln)” value was 9.54 ± 0.18. In the case of “ATTATTATATTTATATGTACATAGAAAAAATTAAAT [XGTACX_site2058]”, the “gcPBM binding intensity (ln)” value is reported as 8.53 ± 0.42. With “TAGTATCCAAGAAAAAGTACTTATTTTAATTTTTTA [XGTACX_site6243]” the “gcPBM binding intensity (ln)” value was 8.03 ± 0.34. With “TCAGATATATATATATAAATATATATTTTGAAATGT [CACACA_negctrl_site686]” the “gcPBM binding intensity (ln)” value was 8.19 ± 0.26. “AATATTTATAAAGACACACAAACAAAAAGGATAAAA [CACACA_site2985]” was tested, and the “gcPBM binding intensity (ln)” value was 9 ± 0.57. “TCATTTAAGTAGACGCGTACGGAAATTACGAATCCT [XGTACX_site144]” was tested, and the “gcPBM binding intensity (ln)” value was 8.59 ± 0.42. For TTTTTTTTTTGTTGAGTGCAATTATTTGTAAGAAAA, the “gcPBM binding intensity (ln)” value was 8.49 ± 0.3. For “AAATTAATATATAAAAGTACCCATATATTTAATATA [XGTACX_site3551]”, the “gcPBM binding intensity (ln)” value was 8.21 ± 0.39. “GTCATATATATATGTACACACATATATATATTTATA [CACACA_site1459]” was tested, and the “gcPBM binding intensity (ln)” value was 8.47 ± 0.21. With GTACGTTACATAAATGTGCACATATTATATGCGAAG the “gcPBM binding intensity (ln)” value was 9.19 ± 0.3. In the case of “TCAAAGCACCCATACACACACATATATATATATATA [CACACA_site4317]”, the “gcPBM binding intensity (ln)” value is reported as 10.3 ± 0.19. TCTCCACCTCTCTTGGTGCGTTATACCCTCGAGGCT was tested, and the “gcPBM binding intensity (ln)” value was 9.005 ± 0.007. In the case of “TATAACAAAATATTCACACATATAAGTAAATAAAGG [CACACA_site5777]”, the “gcPBM binding intensity (ln)” value is reported as 8.73 ± 0.28. For “AGTTTGTTTTTTTTTTTTTTTTCCTGTCACAAACAA [CACACA_negctrl_site1093]”, the “gcPBM binding intensity (ln)” value was 8.79 ± 0.53. “AAGAAAAAAATTTAATTAAATGAAATTTTTGAATTA [TGCATGCA_negctrl_site25]” was tested, and the “gcPBM binding intensity (ln)” value was 8.07 ± 0.4. “AAGACTGCACTTTAAGCACACAAATATATTTTTTTT [CACACA_site8337]” was tested, and the “gcPBM binding intensity (ln)” value was 8.89 ± 0.26. “TGATAAAATGGGGAAATTCATTATATCATATCTTGG [CACACA_negctrl_site789]” was tested, and the “gcPBM binding intensity (ln)” value was 8.47 ± 0.65. With “TTGGATAAAAAATATGTACACACATATAGATATCTA [CACACA_site8862]” the “gcPBM binding intensity (ln)” value was 8.48 ± 0.31. “ATTATATTAAAATACACACCCAAATATTAAAAAGAT [CACACA_site5613]” was tested, and the “gcPBM binding intensity (ln)” value was 8.94 ± 0.62. For “GGTAATTTCCTTTTTTGTACTCATAGAAGGATAATA [XGTACX_site89]”, the “gcPBM binding intensity (ln)” value was 8.58 ± 0.4. For “TTTGAAATATTAAATGCATGTTAAAACATAAAAATG [TGCATGCA_site680]”, the “gcPBM binding intensity (ln)” value was 8.69 ± 0.27. “TTTCTTCTTCTATTGTGTACGTAAAAAAAAAAAAAA [XGTACX_site772]” was tested, and the “gcPBM binding intensity (ln)” value was 8.55 ± 0.48. For “TTTTGTTTAATATTCACACATATATATTTTTTATTT [CACACA_site5496]”, the “gcPBM binding intensity (ln)” value was 8.64 ± 0.38. In the case of CTTTTTATTTAGGAGGTGCATGTAATACGGAACATA, the “gcPBM binding intensity (ln)” value is reported as 9.085 ± 0.035. With “ATTTGTTATATATTCTTTTATGTTAATAATTCGAAT [CACACA_negctrl_site378]” the “gcPBM binding intensity (ln)” value was 8.54 ± 0.42. In the case of “GATCTATACATGGGGACACACATCACTCTATATTTT [CACACA_site3408]”, the “gcPBM binding intensity (ln)” value is reported as 8.93 ± 0.42. For “AAAAAATACAAACACACACACACACCCATATATATA [CACACA_site3560]”, the “gcPBM binding intensity (ln)” value was 8.71 ± 0.3. For “TATGAATAAAAAAGAAGTACAAATTATATGAACGCA [XGTACX_site3018]”, the “gcPBM binding intensity (ln)” value was 9.07 ± 0.46. For “CATACTGTTATAAAATGTACGCATATACACACACAT [XGTACX_site7256]”, the “gcPBM binding intensity (ln)” value was 8.75 ± 0.37. For “TACATATTTTGTATATATTATTTATTTTATTAGTTT [XGTACX_negctrl_site85]”, the “gcPBM binding intensity (ln)” value was 8.41 ± 0.42. In the case of “TTCTGACTTGTTATAATTTGTATATCCGAAAAAATT [TGCATGCA_negctrl_site456]”, the “gcPBM binding intensity (ln)” value is reported as 8.39 ± 0.33. For “ACTATTATTAAAAATTGTACTTTCTATAAATTTTTT [XGTACX_site7825]”, the “gcPBM binding intensity (ln)” value was 8.57 ± 0.39. For “TTTTATCAAATATTTATTTTATACATAAATATTTAT [XGTACX_negctrl_site528]”, the “gcPBM binding intensity (ln)” value was 8.42 ± 0.4. In the case of “AGAAACATATGGTAGTGTACTGTAAATTTATTCTTT [XGTACX_site8602]”, the “gcPBM binding intensity (ln)” value is reported as 8.66 ± 0.47. With “ATTTTGTGTAGTGATGCATGTTATATATATATTTGA [TGCATGCA_site422]” the “gcPBM binding intensity (ln)” value was 8.99 ± 0.43. In the case of “ATAACATCAGTATTATGTACATATGTAGGTAAATAA [XGTACX_site7066]”, the “gcPBM binding intensity (ln)” value is reported as 8.82 ± 0.32. “CGTTATTATACACATACACACAGGAATAAAAAATTA [CACACA_site7373]” was tested, and the “gcPBM binding intensity (ln)” value was 8.64 ± 0.47. In the case of “TTTTATTGTTTTTTTTTTTTTTCTTTTTTTTTTTTT [CACACA_negctrl_site1094]”, the “gcPBM binding intensity (ln)” value is reported as 8.14 ± 0.61. “TTTTTTTTTTTTTTTTGTACGTATCAAAAAATTTGT [XGTACX_site1023]” was tested, and the “gcPBM binding intensity (ln)” value was 8.13 ± 0.47. In the case of “AATCAATAAATAAAAACATGCATATATATATATATA [TGCATGCA_site438]”, the “gcPBM binding intensity (ln)” value is reported as 10.3 ± 0.47. In the case of “AAAAATAAATTTAGTTGTACTTTATTATTTTAAATA [XGTACX_site3067]”, the “gcPBM binding intensity (ln)” value is reported as 8.32 ± 0.29. In the case of “AAAATAAAAATATTCACACATACAAAAATTATACAA [CACACA_site5136]”, the “gcPBM binding intensity (ln)” value is reported as 8.51 ± 0.45. With “CATTAATAAAAAAAAAGTACAAAAAATATATATATT [XGTACX_site2091]” the “gcPBM binding intensity (ln)” value was 8.72 ± 0.52. “ATAATATATATATATAGTACATATATATAATATTCT [XGTACX_site2445]” was tested, and the “gcPBM binding intensity (ln)” value was 8.2 ± 0.24. With “ATTTTTTTACTGTAACCATATTTTTCCCTTTTATTC [CACACA_negctrl_site1143]” the “gcPBM binding intensity (ln)” value was 8.98 ± 0.67. With “AAGAAAAACTTTACGTGTACCAAACATCCTGCCAAC [XGTACX_site598]” the “gcPBM binding intensity (ln)” value was 8.95 ± 0.41. With “TATATTGATGATGATAGTACGTATGATTAGAAAAAA [XGTACX_site8989]” the “gcPBM binding intensity (ln)” value was 8.62 ± 0.39. “AGTGATACTAATTTTTGTACGCATAAAAGAATATTC [XGTACX_site6055]” was tested, and the “gcPBM binding intensity (ln)” value was 8.88 ± 0.36. With “ATAGACAGCGCACAAACACACAAACACCCACCCACA [CACACA_site8043]” the “gcPBM binding intensity (ln)” value was 8.99 ± 0.67. For “TATATATATATGTGTACACAATTTATCTGTATTTAT [CACACA_site5945]”, the “gcPBM binding intensity (ln)” value was 9.94 ± 0.11. “AAAAAAAAAAAAATACGTACATACATACCTACATAT [XGTACX_site233]” was tested, and the “gcPBM binding intensity (ln)” value was 8.615 ± 0.021.
